Test results taken from publication PMC4336329 (PLoS ONE, 2015).
The campaign covered roughly 310,000 compounds. About 14,000 (4.5%) showed an effect of 50% or more. Effects have a minus sign here. The list shows a part of the results.

Biological target: human ether-à-go-go-related gene (hERG) potassium channel (human, UniProt Q12809)
Assay: primary screen, population patch clamp on CHO cells stably expressing hERG
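Further: peak tail current of the secondary pulse compared with the same well before compound.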

human ether-à-go-go-related gene (hERG) potassium channel, sequence (Q12809 whole entry, looked up): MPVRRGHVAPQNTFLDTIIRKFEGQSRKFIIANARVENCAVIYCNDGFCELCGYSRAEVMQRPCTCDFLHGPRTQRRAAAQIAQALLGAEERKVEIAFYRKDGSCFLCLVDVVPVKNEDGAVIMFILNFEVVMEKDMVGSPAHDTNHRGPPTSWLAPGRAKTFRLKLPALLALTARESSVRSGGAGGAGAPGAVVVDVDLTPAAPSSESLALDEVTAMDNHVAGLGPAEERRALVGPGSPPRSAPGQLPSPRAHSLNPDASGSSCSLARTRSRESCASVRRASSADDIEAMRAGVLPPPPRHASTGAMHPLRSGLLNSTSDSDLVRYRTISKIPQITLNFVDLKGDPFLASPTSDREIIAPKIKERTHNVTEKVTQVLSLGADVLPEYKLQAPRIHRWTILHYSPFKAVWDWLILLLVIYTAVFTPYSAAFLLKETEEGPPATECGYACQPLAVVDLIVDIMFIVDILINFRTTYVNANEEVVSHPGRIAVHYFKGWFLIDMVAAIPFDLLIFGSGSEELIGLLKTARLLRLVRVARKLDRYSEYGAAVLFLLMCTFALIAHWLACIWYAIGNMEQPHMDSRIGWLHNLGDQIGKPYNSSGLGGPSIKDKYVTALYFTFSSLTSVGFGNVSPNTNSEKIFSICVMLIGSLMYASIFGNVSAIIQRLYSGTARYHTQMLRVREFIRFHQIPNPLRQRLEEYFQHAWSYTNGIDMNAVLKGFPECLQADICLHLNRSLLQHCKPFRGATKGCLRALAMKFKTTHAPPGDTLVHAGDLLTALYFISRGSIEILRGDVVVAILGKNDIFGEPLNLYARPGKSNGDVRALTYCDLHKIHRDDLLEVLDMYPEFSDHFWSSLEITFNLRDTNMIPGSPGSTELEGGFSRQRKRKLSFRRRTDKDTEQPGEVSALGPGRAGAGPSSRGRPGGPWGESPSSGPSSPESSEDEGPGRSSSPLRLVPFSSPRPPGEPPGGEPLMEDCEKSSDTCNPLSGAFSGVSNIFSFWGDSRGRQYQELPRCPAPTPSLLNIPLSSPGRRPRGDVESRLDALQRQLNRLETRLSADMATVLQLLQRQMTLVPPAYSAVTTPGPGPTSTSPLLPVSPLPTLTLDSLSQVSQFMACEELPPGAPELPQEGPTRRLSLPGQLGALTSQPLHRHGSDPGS

Compared with `Cc1cccc(NC(=O)c2ccccc2OCC(=O)c2ccccc2)c1`, `COc1ccc(C2Nc3ccccc3C(=O)N2NC(=O)c2ccccc2)cc1OC` (stereo not drawn) is lower in “hERG current change (%, negative = inhibition) at 10uM” value: 12.1% for the first, 3.24% for the second.

Going from `COc1ccccc1NC(=O)C1C2C=CC(C2)C1C(=O)NCc1cccnc1` (stereo not drawn) to `CS(=O)(=O)c1ccc2nc(NC(=O)C3C4C=CC(C4)C3C(=O)O)sc2c1` (stereo not drawn), the “hERG current change (%, negative = inhibition) at 10uM” value rises from -10.7% to 10.7%.

First: CSCC[C@H](NC(=O)[C@@H]1Cc2ccccc2CN1)C(=O)NC(C)c1ccccc1 (stereo partly drawn)
Second: CCC(C)[C@H](NC(=O)N1CC(=O)Nc2ccccc21)C(=O)N[C@@H](Cc1c[nH]c2ccccc12)C(=O)O (stereo partly drawn)
The “hERG current change (%, negative = inhibition) at 10uM” value of the first is higher: 5.77% for the first, 3.4% for the second.

Going from `CCOc1ccc(S(=O)(=O)N2CCOCC2)cc1NC(=O)C1CCC1` to `O=C1CCCC(O)=C1N=Nc1cccc(S(=O)(=O)N2CCOCC2)c1`, the “hERG current change (%, negative = inhibition) at 10uM” value falls from 16.3% to -1.24%.

Going from `O=C(CN(CC1CCCO1)C(=O)CNS(=O)(=O)c1ccc(F)cc1)NCc1ccccc1` (stereo not drawn) to `Cc1ccc(CNC(=O)CN(C)S(=O)(=O)c2ccc(F)cc2)cc1`, the “hERG current change (%, negative = inhibition) at 10uM” value falls from 7.27% to 2%.

Compared with `CN(CC(=O)Nc1ccc(OC(F)(F)F)cc1)C(=O)Cc1ccc2c(c1)CCC2`, `CCOc1ccc(NC(=O)CN(C)C(=O)c2ccncc2)cc1OCC` is lower in “hERG current change (%, negative = inhibition) at 10uM” value: 17.7% for the first, -5.45% for the second.

Going from `Cc1ccc(C(=O)Nc2ccc(S(=O)(=O)NCc3ccco3)cc2)cc1` to `COc1ccc(NS(=O)(=O)c2cccc(C(=O)NCC(c3ccco3)N(C)C)c2)cc1` (stereo not drawn), the “hERG current change (%, negative = inhibition) at 10uM” value falls from -5.85% to -28.5%.

First: Cc1cccc(NC(=O)CNC(=O)c2cccc(-n3cccc3)c2)c1C
Second: Cc1cccc(NC(=O)NNC(=O)c2cc3occc3[nH]2)c1C
The “hERG current change (%, negative = inhibition) at 10uM” value of the first is lower: -7.5% for the first, 19.3% for the second.

First: Cc1ccc(NC(=O)Cn2cccc2)cc1Cl
Second: COC(=O)c1nnn(CC(=O)Nc2cccc(Cl)c2)c1C(=O)OC
The “hERG current change (%, negative = inhibition) at 10uM” value of the first is lower: -13.9% for the first, -0.0399% for the second.

First: CC(C)C(C)N(Cc1ccc(C(=O)O)cc1)C(=O)c1ccc2ccccc2n1 (stereo not drawn)
Second: COc1cc(/C=C(/C#N)C(=O)Nc2ccccc2)ccc1OCc1ccc(C(=O)O)cc1
The “hERG current change (%, negative = inhibition) at 10uM” value of the first is lower: 0.513% for the first, 3.98% for the second.

Going from `CCOC(=O)CCc1c(C)c2ccc(OCc3cc([N+](=O)[O-])ccc3OC)c(C)c2oc1=O` to `COc1ccccc1CNC(=O)COC(=O)c1ccc([N+](=O)[O-])o1`, the “hERG current change (%, negative = inhibition) at 10uM” value falls from -0.512% to -2.08%.

Compared with `Cc1cc2ccccc2cc1CN1CCOCC1`, `COc1ccccc1N1CCN(c2nccc(C)n2)CC1` is lower in “hERG current change (%, negative = inhibition) at 10uM” value: -2.48% for the first, -2.72% for the second.

Going from `OCc1cn(-c2ccccc2)nc1-c1cccnc1` to `O=C(Nc1cccnc1)c1ccc(Cl)c(S(=O)(=O)N2CCc3ccccc32)c1`, the “hERG current change (%, negative = inhibition) at 10uM” value falls from 5.13% to -42.7%.

Going from `CCN1CCN(C(=O)N(Cc2ccc(Cl)cc2)S(=O)(=O)c2ccc(C)cc2)CC1` to `CN1CCN(S(=O)(=O)c2cccc(C(=O)NCc3ccc(Cl)cc3)c2)CC1`, the “hERG current change (%, negative = inhibition) at 10uM” value rises from -20.6% to -16.5%.

Compared with `CC1(C)CC(CC(=O)O)CC(C)(C)N1.Cl`, `Cc1c(C(=O)OC(C)C)[nH]c2c1C(=O)CCC2` is higher in “hERG current change (%, negative = inhibition) at 10uM” value: 3.16% for the first, 3.92% for the second.

Going from `CCn1c2ccccc2c2cc(NC(=O)c3ccc(Br)o3)ccc21` to `COc1ccc(NC(=O)c2ccccc2SC)cc1OC`, the “hERG current change (%, negative = inhibition) at 10uM” value falls from 12.2% to -6.67%.

Going from `Cc1ccc(C)c(S(=O)(=O)N2CCCOC2CNC(=O)C(=O)NC2CC2)c1` (stereo not drawn) to `COc1ccc(CCNC(=O)C2CCN(S(=O)(=O)N3CCCCCC3)CC2)cc1OC`, the “hERG current change (%, negative = inhibition) at 10uM” value falls from 20.8% to -8.6%.

Going from `Cc1[nH]c2c(C)cccc2c1CCNC(=O)c1ccc2c(c1[N+](=O)[O-])C(=O)c1ccccc1C2=O` to `O=C(OCc1ccc([N+](=O)[O-])cc1)c1cc2ccccc2oc1=O`, the “hERG current change (%, negative = inhibition) at 10uM” value falls from 16.2% to -0.805%.

Compared with `C[N+](C)(C)CC=O.[Cl-]`, `Cc1cc(C)c(S(=O)(=O)N(C)CC(=O)NCc2ccccn2)c(C)c1` is lower in “hERG current change (%, negative = inhibition) at 10uM” value: 13.7% for the first, -18.4% for the second.

First: CCn1c(=O)c(C(=O)CN2c3ccccc3CC2C)c(N)n(Cc2ccccc2)c1=O (stereo not drawn)
Second: CCCC1(C(=O)O)NC(c2ccccc2O)C2C(=O)N(Cc3ccccc3)C(=O)C21 (stereo not drawn)
The “hERG current change (%, negative = inhibition) at 10uM” value of the first is higher: 3.42% for the first, 0.298% for the second.

First: O=C(COc1ccccc1)N(Cc1cc2ccccc2[nH]c1=O)CC1CCCO1 (stereo not drawn)
Second: COc1cc2c(cc1NC(=O)CN(C)Cc1nc3ccccc3c(=O)[nH]1)oc1ccccc12
The “hERG current change (%, negative = inhibition) at 10uM” value of the first is lower: -1.24% for the first, 8.42% for the second.

Compared with `CCOC(=O)c1ccccc1NC1c2ccccc2C(=O)N1c1cc(C)ccn1` (stereo not drawn), `Cc1ccnc(NS(=O)(=O)c2ccc(NC(=O)CN3C(=O)c4ccccc4S3(=O)=O)cc2)n1` is higher in “hERG current change (%, negative = inhibition) at 10uM” value: -3.98% for the first, 2.45% for the second.

Going from `COCc1ccccc1C1=CC(=O)C[C@H](c2ccc(F)cc2)C1` to `O=C1CCC([N+](=O)[O-])C(c2ccc(-c3ccccc3)cc2)N1` (stereo not drawn), the “hERG current change (%, negative = inhibition) at 10uM” value rises from -47.7% to -11.3%.

Going from `CC(=O)c1ccccc1OCC(O)CN1CCN(CCN2C(=O)c3cccc4cccc(c34)C2=O)CC1` (stereo not drawn) to `COC(=O)c1ccccc1OCC(=O)N1CCN(c2ccc(Cl)cc2)CC1`, the “hERG current change (%, negative = inhibition) at 10uM” value rises from -73.3% to -6.69%.

First: CC1(C)CN=c2s/c(=C\c3ccc(Cl)cc3)c(=O)n2C1
Second: O=C1CSC(c2cccnc2)N1c1ccc(F)cc1 (stereo not drawn)
The “hERG current change (%, negative = inhibition) at 10uM” value of the first is lower: -10.6% for the first, -1.6% for the second.

Going from `CCCC(=O)Nc1ccccc1NC(=O)c1ccc(OCC)cc1` to `COc1ccccc1NC(=O)CN1CCC(C(=O)c2ccc(F)cc2)CC1`, the “hERG current change (%, negative = inhibition) at 10uM” value falls from -3.12% to -38.5%.

Compared with `Cc1ccc(NC(=S)N2CCC(c3nc4ccccc4s3)CC2)cc1C`, `CC(C)c1ccc(NC(=S)N2CCN(C)CC2)cc1` is lower in “hERG current change (%, negative = inhibition) at 10uM” value: 8.85% for the first, -0.899% for the second.

First: COc1ccc2c(c1OC)C(=O)N(c1cccc(C)c1)C2=O
Second: COc1ccc(/C=N/NC(=O)Cn2nnc3ccccc32)cc1OC
The “hERG current change (%, negative = inhibition) at 10uM” value of the first is higher: 1.15% for the first, -20% for the second.

Compared with `O=C(NNS(=O)(=O)c1ccc(F)cc1)C1CC(c2cccnc2)=NO1` (stereo not drawn), `O=C(CCc1ccc(S(=O)(=O)NC2CCCCC2)cc1)NCc1ccc(Cl)cc1` is lower in “hERG current change (%, negative = inhibition) at 10uM” value: 9.52% for the first, 4.7% for the second.

First: COc1ccc(-n2c(=S)[nH]c3cc(C(=O)NCc4cccnc4)ccc3c2=O)cc1
Second: COc1ccc(CN2C[C@H](Cc3ccccc3)[C@@H](CC(=O)Nc3ccccc3)C2=O)cc1
The “hERG current change (%, negative = inhibition) at 10uM” value of the first is higher: 19.9% for the first, -10.5% for the second.

First: COc1ccc(CCNC(=O)CSc2nnc3ccc(-c4ccccn4)nn23)cc1OC
Second: O=C(NCc1ccc2c(c1)OCO2)c1ccc(COc2cc(Cl)ccc2Cl)o1
The “hERG current change (%, negative = inhibition) at 10uM” value of the first is lower: 2.17% for the first, 11.7% for the second.

Going from `O=S(=O)(Nc1cccc2ccccc12)c1cccs1` to `CC(O)(CS(=O)(=O)Cc1ccccc1)c1ccccc1` (stereo not drawn), the “hERG current change (%, negative = inhibition) at 10uM” value rises from 14.9% to 15.2%.

First: CC(=O)/C=C(\C)N=Nc1c(O)[nH]c2ccccc12
Second: COC(=O)/C=C1/S/C(=N/NC(=O)c2ccccc2C)NC1=O
The “hERG current change (%, negative = inhibition) at 10uM” value of the first is lower: 5.48% for the first, 7.46% for the second.

Compared with `Cc1ncn(C23CC4CC(CC(C4)C2)C3)n1`, `Cc1nc2scc(C)n2c(=O)c1S(=O)(=O)N1CCN(c2ccccn2)CC1` is lower in “hERG current change (%, negative = inhibition) at 10uM” value: 17.1% for the first, -2.3% for the second.

Going from `C#CCOCCOCCOCCNc1nc(N2CCN(C(=O)CCCCCCCCCCNC(=O)Cn3cc(C[C@@H](C)O)nn3)CC2)nc(N2CCN(C(=O)CCCCCCCCCCNC(=O)[C@H](CCCN=C(N)N)n3cc(C[C@@H](C)CC)nn3)CC2)n1` to `CCOC(=O)N1CCN(C(=O)c2c(-c3ccccc3Cl)noc2C)CC1`, the “hERG current change (%, negative = inhibition) at 10uM” value rises from 3.82% to 17.5%.

Compared with `Cc1nc2ccccc2n1CCOc1ccc([N+](=O)[O-])cc1`, `N#CCCN(C(=O)COC(=O)COc1ccc(Cl)cc1)c1ccccc1` is higher in “hERG current change (%, negative = inhibition) at 10uM” value: -73.8% for the first, 7.9% for the second.

First: O=C(Cn1nnc(-c2ccccc2Cl)n1)N1CCCCC1
Second: N#Cc1ccccc1S(=O)(=O)N1CCN(C(=O)CCc2ccccc2)CC1
The “hERG current change (%, negative = inhibition) at 10uM” value of the first is higher: 0.255% for the first, -15.1% for the second.

Compared with `Cc1cc(C(F)F)n2nc(C(=O)NCc3ccccc3F)nc2n1`, `CCNC(=O)c1c(C)nc2ccccn12` is lower in “hERG current change (%, negative = inhibition) at 10uM” value: 8.17% for the first, -5.31% for the second.

Compared with `C(=C\c1ccco1)/c1ccc2ccccc2n1`, `O=C(NCC1(c2ccccc2)CCCC1)c1ccccc1Br` is higher in “hERG current change (%, negative = inhibition) at 10uM” value: -16% for the first, 5.78% for the second.

Compared with `Cc1ccc(NC(=O)CCC(=O)N/N=C/c2coc3ccc(F)cc3c2=O)cc1`, `N#CCCN(C(=O)COC(=O)CCc1c[nH]c2ccccc12)c1ccc(F)cc1` is higher in “hERG current change (%, negative = inhibition) at 10uM” value: -8.9% for the first, -3.93% for the second.

First: COC(=O)c1cc(C(=O)OC)cc(-n2c(C)cc(C(=O)COC(=O)CNS(=O)(=O)c3ccc(C)cc3)c2C)c1
Second: O=C(COC(=O)C1CCC(N2C(=O)C3C4CCC(C4)C3C2=O)CC1)c1ccc(F)cc1 (stereo not drawn)
The “hERG current change (%, negative = inhibition) at 10uM” value of the first is lower: -7.5% for the first, 0.93% for the second.

Compared with `O=C(Nc1ccc2[nH]c(=O)[nH]c2c1)c1c(F)c(F)c(F)c(F)c1F`, `CCCC(=O)NC(=S)Nc1ccc(Cl)cn1` is lower in “hERG current change (%, negative = inhibition) at 10uM” value: 14.2% for the first, 13.3% for the second.
